172 sequences from article PMC6212790 can be followed below.

The other results are listed elsewhere or left out. At the low end of the ranking, values are background and their order means little.

The assay concerns the target T1, GST-Rok-C97-191 (UniProt O34857).
T1 sequence: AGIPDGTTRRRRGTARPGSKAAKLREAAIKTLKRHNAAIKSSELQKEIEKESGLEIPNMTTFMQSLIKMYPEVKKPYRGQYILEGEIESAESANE
In words: protein binding microarray.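 Also: rank score from −0.5 (least bound) to 0.5 (best bound).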 The conditions noted are these: Rok is a gene silencer of Bacillus subtilis; high values mean tight binding; most listed sequences are background and not binding sites; double strand, one strand shown.
As for GCTCGCAA, the binding signal was -0.145 E-score.

AGTCAAGG registered a binding signal of -0.145 E-score.

As to CCAGGCGC, the binding signal was -0.22 E-score.

AGAAAAAC gave a binding signal of 0.106 E-score.

The sequence CGATAGTC yielded a binding signal of -0.0434 E-score.

CTTATTAC gave a binding signal of 0.332 E-score.

GGTGCACC showed a binding signal of -0.301 E-score.

In turn, ACTTCTGA had a binding signal of 0.0382 E-score.

CGGCGATA came in with a binding signal of 0.101 E-score.

GTATGAAC returned a binding signal of 0.0892 E-score.

In the case of AGTCATGG, the binding signal is -0.0208 E-score.

Consider CCAGGTGC, for which the binding signal was -0.311 E-score.

In the case of CTACTCCC, the binding signal was 0.0937 E-score.

Turning to AGATTGCC, the binding signal was -0.0861 E-score.

Regarding ACCGTAGC, the binding signal was -0.0564 E-score.

Turning to AGTGGTGA, the binding signal was found to be 0.0302 E-score.

As to ACAAGCGA, the binding signal is -0.172 E-score.

Sequence GGCCGAAC showed a binding signal of -0.283 E-score.

Take AGCTGAAG: the binding signal was found to be 0.097 E-score.

ACACCAGA: the binding signal was found to be 0.126 E-score.

GTTGTAAA had a binding signal of 0.271 E-score.

CGGACCGA showed a binding signal of -0.0489 E-score.

Sequence AGTCGCTA displayed a binding signal of 0.1 E-score.

CCCGCATA displayed a binding signal of -0.124 E-score.

CTGCCCCC: the binding signal is -0.352 E-score.

For AAGCAGGG, the binding signal is -0.181 E-score.

CGCGGTCC showed a binding signal of -0.216 E-score.

Regarding GTAAATAA, the binding signal is 0.28 E-score.

GCCCTATA yielded a binding signal of -0.0126 E-score.

Sequence CTTTTTTC registered a binding signal of 0.0492 E-score.

For the sequence CTCTCTGC, the binding signal is -0.0591 E-score.

In the case of TTAGAGAA, the binding signal was -0.0283 E-score.

GATGCCCC had a binding signal of -0.189 E-score.

In the case of AACTTACC, the binding signal was determined as 0.0708 E-score.

GCCCGCTA registered a binding signal of -0.113 E-score.

AGTGCAAG returned a binding signal of 0.113 E-score.

ACATAAGT had a binding signal of 0.137 E-score.

The sequence AGTGTGTC came in with a binding signal of -0.118 E-score.

GAGTGTCA yielded a binding signal of -0.0802 E-score.

In the case of ACGGCCCT, the binding signal is -0.204 E-score.

CCAGCTCA registered a binding signal of 0.0137 E-score.

The sequence AACACGCG returned a binding signal of -0.134 E-score.

Regarding CTTTCCAA, the binding signal was -0.223 E-score.

With AGACAACT, the binding signal was -0.0783 E-score.

Take GAGGTCAC: the binding signal was -0.279 E-score.

With GTGGAACA, the binding signal was -0.175 E-score.

For ACACAGGA, the binding signal was -0.181 E-score.

TGGTGCAA came in with a binding signal of -0.0495 E-score.

GGTGAACA: the binding signal came out at 0.0462 E-score.

ACAGCGAC registered a binding signal of -0.042 E-score.

The sequence AGCGGGTG returned a binding signal of -0.207 E-score.

Turning to CCCATCTA, the binding signal stood at 0.145 E-score.

Take AATAAAAA: the binding signal is 0.295 E-score.

As for ATTGATTG, the binding signal was -0.0735 E-score.

CTGTAAAG gave a binding signal of 0.00839 E-score.

As for ACTCGACT, the binding signal was -0.0495 E-score.

With GTTATCAA, the binding signal amounted to 0.268 E-score.

As for CATGGAAG, the binding signal is -0.104 E-score.

Sequence CAGCGATA came in with a binding signal of 0.135 E-score.

In turn, ACGGTAAC registered a binding signal of 0.0765 E-score.

As for CATGAGGA, the binding signal is -0.112 E-score.

CACAGTGG registered a binding signal of -0.147 E-score.

The sequence AGTTGATA had a binding signal of 0.161 E-score.

Sequence AATCCGTA yielded a binding signal of 0.14 E-score.

As for AAGTCATA, the binding signal is -0.0251 E-score.

CATCCATA had a binding signal of 0.0697 E-score.

Turning to CAATGTAC, the binding signal worked out at 0.204 E-score.

GAATAAAC had a binding signal of 0.0598 E-score.

Sequence GTCTAGAA returned a binding signal of -0.0641 E-score.

In the case of ACAGGCGC, the binding signal was -0.0721 E-score.

TAGGACGA gave a binding signal of -0.213 E-score.

For the sequence CGGTCGCA, the binding signal is -0.0742 E-score.

Turning to AGGCCGCA, the binding signal is -0.381 E-score.

Sequence TCACAGCA came in with a binding signal of -0.0793 E-score.

With CTTAGATA, the binding signal was found to be 0.244 E-score.

In turn, CGATGTCC gave a binding signal of -0.128 E-score.

The sequence CGAGTCGC gave a binding signal of -0.117 E-score.

Sequence CCCGCGAC registered a binding signal of -0.282 E-score.

As for CGCCTACC, the binding signal is -0.059 E-score.

As for CTAACGAG, the binding signal is 0.12 E-score.

For the sequence ATTACAGA, the binding signal is 0.216 E-score.

The sequence CCCTCGCA came in with a binding signal of -0.231 E-score.

AAGTCGCC returned a binding signal of -0.103 E-score.

AAGTTGTG yielded a binding signal of 0.0629 E-score.

In turn, ACATCGGG displayed a binding signal of -0.168 E-score.

AACAATTC gave a binding signal of 0.118 E-score.

ATACGTCC: the binding signal came out at 0.049 E-score.

CATGGGAC showed a binding signal of -0.0494 E-score.

ATGCAGTC gave a binding signal of -0.0482 E-score.

As to GGGGTCTA, the binding signal was -0.3 E-score.

For the sequence CATGTAAA, the binding signal was 0.25 E-score.

As for ACTAGCCT, the binding signal worked out at 0.0922 E-score.

As for ATCAGTAA, the binding signal came to 0.225 E-score.

In turn, AAGCTCGA had a binding signal of -0.164 E-score.

For the sequence CCTATATA, the binding signal came out at 0.283 E-score.

On to TCTAAGCA, for which the binding signal stood at 0.125 E-score.

Regarding GCCGCCGA, the binding signal is -0.238 E-score.

As for TGGTCAAA, the binding signal was -0.0326 E-score.

GGTCGCGA returned a binding signal of -0.119 E-score.

Sequence GGGTCGCA yielded a binding signal of -0.0169 E-score.

As for ACTCATCA, the binding signal worked out at 0.184 E-score.

As to ATGGAAAA, the binding signal is 0.0655 E-score.

Consider CGCTTCCA, for which the binding signal was -0.00772 E-score.

As to AGGCCGCG, the binding signal was -0.24 E-score.

Turning to AAACGTCA, the binding signal was -0.105 E-score.

The sequence AGATCACC had a binding signal of 0.0774 E-score.

In the case of AGGGGTCC, the binding signal is -0.292 E-score.

Regarding CATGAACA, the binding signal is -0.12 E-score.

In the case of GAAACCAA, the binding signal came to 0.0196 E-score.

Turning to GAAGGGCC, the binding signal is -0.263 E-score.

In turn, TACGGATA showed a binding signal of 0.0656 E-score.

Consider ACCAGTCA, for which the binding signal was -0.113 E-score.

As to CTTACCAC, the binding signal is 0.0604 E-score.

Take AATGTTGT: the binding signal was -0.0213 E-score.

As to AACTAGTG, the binding signal came out at 0.376 E-score.

GCCCGAGA yielded a binding signal of -0.0951 E-score.

Regarding AAGCCCAT, the binding signal is -0.0839 E-score.

CGCGACAA: the binding signal is -0.0184 E-score.

As to TCCAGGCA, the binding signal is -0.138 E-score.

For GTCGATGA, the binding signal was -0.0895 E-score.

In turn, CACACACA came in with a binding signal of -0.00487 E-score.

For the sequence ATAGAAGG, the binding signal is -0.044 E-score.

On to CCTCATCG, for which the binding signal is -0.0544 E-score.

In turn, AGCATAAC yielded a binding signal of -0.0105 E-score.

In the case of AAGCTAAC, the binding signal was -0.0805 E-score.

In the case of CTTTCTCC, the binding signal is -0.098 E-score.

For the sequence CAGTAGGC, the binding signal was -0.0831 E-score.

Turning to ACTAAAAG, the binding signal turned out to be 0.312 E-score.

In turn, AAACAGAA registered a binding signal of -0.0673 E-score.

AATAGGAG displayed a binding signal of 0.0509 E-score.

As for AAGAAAGG, the binding signal is -0.107 E-score.

Regarding TAGCGAGA, the binding signal came out at 0.093 E-score.

With AAGCCTAC, the binding signal stood at 0.0526 E-score.

CTACACTA gave a binding signal of 0.228 E-score.

Consider AAGGACCG, for which the binding signal was -0.244 E-score.

Consider TATCAAAA, for which the binding signal came out at 0.0783 E-score.

CTAACTTA returned a binding signal of 0.162 E-score.

On to CAATCGGA, for which the binding signal was determined as 0.101 E-score.

The sequence AAGACCAC came in with a binding signal of -0.184 E-score.

CAGGCTTA: the binding signal is -0.0989 E-score.

TATCGCGA came in with a binding signal of 0.109 E-score.

Consider GAGATTTA, for which the binding signal was determined as 0.0404 E-score.

TCCTATCA: the binding signal turned out to be 0.177 E-score.

For ATCTGGCA, the binding signal was -0.134 E-score.

ACGACCAC registered a binding signal of -0.0476 E-score.

Turning to GACGACTC, the binding signal was -0.306 E-score.

In turn, GCACTGTA yielded a binding signal of 0.0283 E-score.

In turn, TCGCGGAA returned a binding signal of 0.0502 E-score.

The sequence ACATAACA gave a binding signal of 0.222 E-score.

In the case of CGATACTA, the binding signal is 0.271 E-score.

Turning to AACGAACG, the binding signal is -0.166 E-score.

As to GCCAACAC, the binding signal was -0.042 E-score.

AACGTTCC returned a binding signal of -0.101 E-score.

On to ACTCACTG, for which the binding signal is 0.00942 E-score.

In turn, AGATCACT had a binding signal of -0.0858 E-score.

Consider AGTATCTC, for which the binding signal is 0.185 E-score.

In the case of ACAATATC, the binding signal was 0.0821 E-score.

For ACTGTGAA, the binding signal amounted to 0.0664 E-score.

CAAACAAG: the binding signal is -0.215 E-score.

Sequence GGAGCGAA showed a binding signal of -0.219 E-score.

With ACGAAAAA, the binding signal is -0.0149 E-score.

Sequence CTTCCAAC registered a binding signal of -0.19 E-score.

In turn, AATAGCAA registered a binding signal of 0.152 E-score.

ACCTGTAC: the binding signal is 0.0103 E-score.

As for AACTTGAG, the binding signal was determined as 0.0682 E-score.

As for GCTTCTAC, the binding signal came to 0.268 E-score.

Sequence AATCCAAA displayed a binding signal of -0.0669 E-score.

Take ACTGTGGA: the binding signal is -0.0198 E-score.

CCGAGTCC showed a binding signal of -0.192 E-score.

In turn, AACATGCT yielded a binding signal of -0.0794 E-score.

Turning to GAATGGTC, the binding signal was -0.121 E-score.

As to CACTCGCC, the binding signal was -0.331 E-score.
